# Results: the supplement of paper PMC11417369
# This is one part of the list.
# System: PF3D7_0420300 AP2 domain 1 (GST-tagged)
# Test: gcPBM binding intensity (ln(normalized median fluorescence intensity)); higher = stronger DNA binding
# Method in brief: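 Binding of GST-tagged P. falciparum DNA-binding domains, expressed in E. coli and used at about 25 μg on average, was carried out for 1 h in 1× PBS containing 1% milk, 0.2 mg/ml BSA, 0.5% salmon testes DNA and 0.03% Triton X-100. The target was an Agilent 4 × 180k array of primer-extended double-stranded 36-bp intergenic genomic probes plus negative controls, read with Alexa488 anti-GST antibody at 488 nm. Binding intensity is the highest Masliner-normalised natural-log median intensity across replicate spots of either probe orientation.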
row,Sequence,gcPBM binding intensity (ln)
1,ATTTTACATATTTGCACACATATATTTAAATACATA [CACACA_site4627],9.65
2,GTCCTTATGGATGATAAATTATTTTAAATATTCTAT [XGTACX_negctrl_site200],9.01
3,TCTTGGTTATTAAAAAAAAAAAAATATATTTTTCCT [TGCATGCA_negctrl_site445],8.88
4,TTGCATATTTCTAATTGTACATTATTTTATTTTATA [XGTACX_site8451],9.45
5,GGGAAAATAAATAAAGTGCAGATATTAAAAGTTGTA,9.41
6,AATAAAAAATATATGAGTACTAAATTGTTTTCTTAA [XGTACX_site8573],9.01
7,CTCAACGATAGAGAAACATGCAAGTATAAGCAACTA [TGCATGCA_site771],9.5
8,TTTTATTGTTGTTATACACACCATATAAAATATTTC [CACACA_site4983],9.32
9,ATTCACTAAAAAATTGCATGCAATAAATTTTTTTTT [TGCATGCA_site962],8.91
10,AATTGATTTATATATTGTACATATAAATTTATGTAT [XGTACX_site7785],9.27
11,TTTATTTATTATTAAAGTACTAAATCATATTATTAT [XGTACX_site992],8.9
12,TATTTATATATTATGTGTCCACATGTAAGCTATCTT [XGTACX_site3887],9.12
13,CCACTAATAAATATTACACACATATATATATATATT [CACACA_site3128],9.57
14,TTTTCTTTTTTCTGTTGTACTAAAAATAATTTTGTA [XGTACX_site5171],9.12
15,TATACATTATCTTATGCATGCGCATCTGCATATAAA [TGCATGCA_site266],9.05
16,AGTATAAATAAATCATAAACATATATATATATATAT [GTGCAC_negctrl_site356],9.2
17,ATATATACATATAACACACACATATATATATATATA [CACACA_site2575],9.56
18,CTCATCCTTACATACACACACATATATATATATATA [CACACA_site103],9.82
19,ATATTTAAATCGAAGGTGCGTATTTCCTTTTTTTTT [GTGCAC_site9632],9.4

row,Sequence,gcPBM binding intensity (ln)
1,ATTCATTTCTATTTTACACACAATAAGTAACTTAAT [CACACA_site2850],9.72
2,AAAAAAATAACAAAATGTATACAATATAACAAAAAT [GTGCAC_negctrl_site512],9.7
3,AACATATACCCAGGTACATGCAAATATATATATTAT [TGCATGCA_site878],9.37
4,TTTAAAAATTAATTCTGTACACATTTTTATTTTATT [XGTACX_site8],9.35
5,TTCTTTCTTCAAAAGTGTACCAAATGTTAGAAAGGT [XGTACX_site4353],9.21
6,ATATATATATATATGTGTACACAACAAAATAAAAAA [XGTACX_site7378],9.56
7,AATGTATATAATATTAATATGTAAATATATAATCAA [CACACA_negctrl_site1683],9.31
8,TGAATAAATATATATACACACCCATATATATATATA [CACACA_site8833],9.36
9,TTAAAAAGTGCGTAGTGTACTAATATAAATAATACA [XGTACX_site2922],9.35
10,TATACCTATAAATACACACACATATATAAATATGTA [CACACA_site6625],9.76
11,TCCTTAAAAATCTAAAAAGAAAAAAACATATATTTT [GTGCAC_negctrl_site123],8.88
12,ATTATTATATATATAACACACATAATTATATACTTA [CACACA_site1563],9.47
13,AAATAAAAACCATATCGTACAAAAATTTTTGTATTT [XGTACX_site7497],9.55
14,ATATATATATATATATGTACTTAAAAATTTGTTTTG [XGTACX_site1514],8.9
15,AAGTCAATTTTTTTTTTTTTTTTTTAACTTATTAAT [TGCATGCA_negctrl_site14],9.08
16,GATCACTGAATAAAGGCACACATCTGACTAATTTTT [CACACA_site66],9.32
17,ATATCAACTGAATTGTATAGGCGATAAAAGAAAAAA [CACACA_negctrl_site1334],9.19
18,TTTATACATACATTCGTGCACATACGTATAACATAT,9.36
19,AGAATTATAAATTATAGTACATAAAATTTTGATGTA [XGTACX_site5726],9.2

row,Sequence,gcPBM binding intensity (ln)
1,ATATAAATATATGTATGTACACATTTTTTTTTTTTT [XGTACX_site247],9.29
2,AAACGATCTCGATGTTGTACACATTTATATAGAAAC [XGTACX_site4373],9.31
3,TACTAAAATATATATATGCAACATGAGATATTCAAC [XGTACX_negctrl_site283],9.46
4,CTAAACTAAACAAACTGTACACAAATAAAACAATAA [XGTACX_site8880],9.71
5,CATGTGTGTATAATTTGTACATATACATAATAAATA [XGTACX_site2418],9.55
6,GTTGTCCCCCTTTCTATGCACACTTTAAATTATTCA [CACACA_site52],9.89
7,ATTCTAATAGATAGTAGTACCTATAAGTTTTCTTTT [XGTACX_site2315],9.2
8,AATTTATAAGAATATTGTACGTTTAATATATTGTAA [XGTACX_site7553],9.15
9,AAAATAATAATTAAATAATAGTAAATGAAAAATAAA [CACACA_negctrl_site57],9.36
10,ATAAATACTAGGCACACACACATATAGATTTATATA [CACACA_site7064],10
11,TATGTGTTCAGTATTGCACACACACTCCAAAATAAA [CACACA_site8018],9.58
12,ACTTCATTTTATAAGTGTACATAATTTGTTTATATA [XGTACX_site5453],9.38
13,TATACAATATATTTTGGTACACAAACAAAAAAATAT [XGTACX_site2522],9.52
14,ATTAAAAGAACCAAGTGTACATTCTATATATAAAAA [XGTACX_site4260],9.23
15,GAAAAAGACAAAAGGTGTACAATATGAAATATATAT [XGTACX_site373],9.49
16,ATATTATGATCTATTTTTATATTCTATTTGATAAAT [CACACA_negctrl_site1070],9.2
17,GTTCACCAAAGGTAACGTACACAAACATATATATAT [XGTACX_site1073],9.07
18,TAATTCTAAATAAATGTACACACAAAAATAAATGTA [CACACA_site8509],9.54
